# Source: the supplement of paper PMC3334620
# The full ranking holds about 33,000 sequences; the median of “E-score (-0.5 to 0.5)” is about -0.012, and the highest 2% start at about 0.27. This is one part of the list.
# Target: T1, Vhr1 (UniProt P40522)
# T1 sequence: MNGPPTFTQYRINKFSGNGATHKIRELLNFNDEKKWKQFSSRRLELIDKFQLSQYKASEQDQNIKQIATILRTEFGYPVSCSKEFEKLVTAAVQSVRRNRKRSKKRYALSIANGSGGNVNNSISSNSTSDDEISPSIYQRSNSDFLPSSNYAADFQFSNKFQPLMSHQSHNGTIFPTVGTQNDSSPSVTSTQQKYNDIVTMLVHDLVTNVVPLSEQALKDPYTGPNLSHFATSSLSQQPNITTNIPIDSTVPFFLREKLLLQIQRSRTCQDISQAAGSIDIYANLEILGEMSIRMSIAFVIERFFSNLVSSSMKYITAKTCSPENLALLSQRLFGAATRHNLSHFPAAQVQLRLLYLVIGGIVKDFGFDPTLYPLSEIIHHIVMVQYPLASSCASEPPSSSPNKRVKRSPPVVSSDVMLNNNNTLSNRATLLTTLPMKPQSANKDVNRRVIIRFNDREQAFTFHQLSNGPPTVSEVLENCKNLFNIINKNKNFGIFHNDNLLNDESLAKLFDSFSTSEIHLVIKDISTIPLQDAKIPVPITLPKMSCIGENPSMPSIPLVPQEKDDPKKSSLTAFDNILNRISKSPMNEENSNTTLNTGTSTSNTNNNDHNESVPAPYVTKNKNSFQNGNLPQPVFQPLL
# Assay: PBM E-score (8-mer binding enrichment) (E-score (-0.5 to 0.5)); higher = stronger / more preferred TF binding; most listed sequences are background and not binding sites
# Details: protein concentration: 200 nM; construct: GST-full length
# How it was run: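 Using PURExpress in vitro transcription/translation, GST-tagged yeast transcription factors were made in full-length or DNA-binding-domain form. These were applied at about 100-200 nM to double-stranded universal all-10-mer Agilent arrays, and bound protein was detected with fluorescent anti-GST. Scans were normalised with masliner before the Universal PBM Analysis Suite assigned E-scores to ungapped eight-base words pooled with their reverse complements.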
row,Sequence,PBM E-score
1,CGTTGGCC,-0.187
2,ACCCTGTA,-0.0186
3,ACTGTACT,-0.071
4,ATAATAGG,0.0975
5,ATCATGTC,0.256
6,CTCTATTA,-0.0585
7,CAGAGGGG,-0.22
8,ATAAATTA,0.116
9,GTTGACGA,0.00821
10,CACCATAC,0.0859
11,ACCAGTCA,0.298
12,CAGTGCAA,0.0571
13,GTTTCTAA,-0.247
14,CAAATTTG,-0.113
15,TACACCCA,0.222
16,GGCGTTTA,-0.0151
17,GTTTACTA,0.132
18,AAGTTAAC,-0.0842
19,CGTATGTC,0.036
20,ACTATCTC,0.0558
21,CCAATCCC,0.13
22,CAACTCTC,-0.113
23,GGACATCC,-0.0758
24,CCTTGCGC,0.055
25,CCTACACG,-0.0152

row,Sequence,PBM E-score
1,ACAGCAGA,-0.0126
2,CCAAAGGG,0.0819
3,ATGTTGAC,0.178
4,GAGTCTAC,0.0425
5,CAGGGGGA,-0.0431
6,GCTTCCCA,-0.0411
7,CTATCAAC,0.00465
8,TTAATGAA,-0.0681
9,CTATGCTA,0.0846
10,ATATCGAT,0.232
11,AAAGCTTC,-0.344
12,CCAGGTCG,0.00213
13,AAGGTAGG,-0.0143
14,CGATCATA,0.0846
15,GAGGAAAA,-0.197
16,AACGGTCT,-0.153
17,AAACACTG,0.0888
18,CAGGTCAA,-0.245
19,GGACGCCC,-0.148
20,TGGTGAAA,-0.108
21,CAGGCAAG,-0.0917
22,CTGCAGCA,0.0732
23,CGCCGCCC,0.118
24,CTTCAGTA,-0.0184
25,TAAAACCA,-0.0353

row,Sequence,PBM E-score
1,ACGCGCTA,-0.0771
2,ATCTGCGC,0.163
3,GCATGCAA,0.176
4,CCACTCTC,-0.13
5,CCGACCAA,0.0363
6,GGGCAGCA,0.00846
7,AGGCTCGA,-0.0488
8,AGCCCATC,0.22
9,ACGACACT,0.219
10,ACAGTCGC,0.0972
11,ACGAGTGG,0.0233
12,AGTGATTG,0.343
13,CCGGTGGA,0.0427
14,ATTCTAGA,-0.0371
15,ACGTCGTA,-0.251
16,GCAAGACA,-0.242
17,GTTAATAA,0.0193
18,CTGTCGAC,0.00438
19,CCACGGCG,0.0427
20,TGGCCCAA,-0.248
21,GTGAGTGA,0.245
22,ACCCTAAC,-0.0674
23,ATCGTTTG,0.0348
24,AATGATAG,0.162
25,GCCAAAGC,-0.168

row,Sequence,PBM E-score
1,GACTACAC,0.315
2,ATCGCAGA,0.00975
3,ACTAAGCG,0.0112
4,CACGGCAA,-0.0477
5,CACAGGGC,-0.0909
6,AACATCAG,0.00809
7,TACGGAAA,-0.141
8,CGTGCCCA,-0.067
9,AAATGGTC,-0.104
10,TACCGACA,0.158
11,ATCTCAGC,-0.0544
12,AAAGCCAT,-0.0236
13,CGCATTCC,-0.137
14,GGTCAGGA,0.0179
15,GGATAGCA,0.0477
16,CTTCCTAC,-0.352
17,CTGTTAGA,-0.168
18,GGGTCTAC,-0.00895
19,CACGGATC,0.189
20,ACCTAAAT,0.0108
21,CTAACTTA,-0.153
22,GAACCAGC,0.0571
23,ATAGTGTG,0.264
24,GCACCTGC,-0.00774
25,CACTATTC,-0.00366

row,Sequence,PBM E-score
1,CATGCACG,-0.132
2,AAGGATGA,0.157
3,AAGTTCGG,-0.155
4,AAGAGATG,-0.0141
5,CTGGACCA,-0.069
6,TGTCAGAA,-0.0701
7,GCTACAAA,-0.0951
8,ACGTTGAA,-0.0769
9,ATGCAACC,0.0513
10,AGACGTTA,-0.167
11,GACCTTGA,-0.132
12,AGGTAGGG,0.0497
13,AAACATCA,0.0589
14,AGAATTCC,-0.103
15,GGTGCCAA,-0.00979
16,ACACTTGG,0.0977
17,ATCGGCTC,0.0969
18,ACTTCGAG,-0.112
19,CGCCGCTC,0.00899
20,ATGATATC,0.0491
21,ATGAGCCA,0.271
22,CCCCACGC,-0.213
23,CAGGGATC,-0.0171
24,GACAAATA,0.00451
25,AGGACTCG,0.167

row,Sequence,PBM E-score
1,TGATTGCA,0.194
2,ACCCGCAC,0.165
3,CAGACGGG,-0.00878
4,AGGATTGC,-0.0582
5,AAATCCCG,-0.0961
6,CGAGAATC,-0.11
7,ATCGACCA,-0.13
8,ACACAATC,0.0721
9,CCCGCCTA,0.164
10,GGATTAAC,0.0936
11,AATAAGAC,-0.158
12,CGTCTAGC,-0.214
13,AAGCCCGA,-0.0873
14,TCCGAGCA,0.0459
15,ACCTAGCA,-0.0226
16,CCAAAGGC,-0.19
17,AAGATATG,0.209
18,GAAGGCAA,-0.141
19,CGTAGTAA,-0.095
20,AATCCAGG,0.0824
21,AATGCGAT,0.05
22,ACAGACGA,0.0948
23,GAGTGGAA,-0.127
24,AGGGCCAA,-0.299
25,ACGTCAGC,0.0686

row,Sequence,PBM E-score
1,AGCCAATC,0.0205
2,GCTATGAC,0.201
3,CCGTCACG,-0.0793
4,CTGGTCGA,-0.119
5,GATAGTTA,0.109
6,AATTCGAA,-0.184
7,CTAGCTCA,0.0283
8,CATGGATC,0.124
9,AGTATGCC,-0.0269
10,AGGAGCAA,0.0404
11,CACGTGAG,-0.0791
12,GCCCGATA,-0.144
13,CCGCAAAG,-0.00457
14,ACGGTTTC,-0.206
15,GCACATAC,-0.106
16,ACGTCTCA,0.0563
17,GATCTCCC,-0.0243
18,ACAACAAT,0.164
19,ATGCAGTC,0.184
20,CACCCGAG,0.0487
21,ACTTGGCT,0.0651
22,AGCTATTC,-0.148
